Results from a collection of fitness landscapes (doi:10.1016/j.celrep.2020.107928).
Over roughly 81,000 sequences, “one-hybrid fitness for binding parS DNA” has its median near -0.17; the highest 2% begin near 0.51. The list shows a part of the results.

B1: Caulobacter ParB omega fusion; a variant is named by its letters at X, in order, B8GW30 (parent)
chain: MESVVVGEPGMSEGRRGLGRGLSALLGEVDAAPAQAPGEQLGGSREAPIEILQRNPDQPRRTFREEDLEDLSNSIREKGVLQPILVRPSPDTAGEYQIVAGERAWRAAQRAGLKTVPIMVRELDDLAVLEIGIIENVQRADLNVLEEALSYKVLMEKFERTQENIAQTIGKSXSHVANXMRLLXLPDEVQSYLVSGELTAXHARAIAAAADPVALAKQIIEGGLSVRETEALARKAPNLSAGKSKGGRPPRVKDTDTQALESDLSSVLGLDVSIDHRGSTGTLTITYATLEQLDDLCNRLTRGI

Variants of: B1
Assay: one-hybrid fitness for binding parS DNA (scaled: cognate 1, non-cognate 0); higher = stronger binding
Settings: with parS DNA site
How it was run: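 Pre- and post-selection plasmids were Illumina-sequenced, three replicate libraries were pooled, and any variant with under 10 reads was removed. The libraries were Caulobacter ParB with four specificity codons randomised, selected in E. coli USO through a HIS3 reporter whose site is 19 bp from the promoter. Cells grew 48 hours at 37°C on M9 without histidine, with 0.1 mM IPTG and 5 mM 3-AT. Fitness is the log change in variant-to-wild-type read ratio, rescaled against cognate and non-cognate.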

one-hybrid fitness for binding parS DNA, ≤ 0.2:
PAQT
DNYR
SIVL
QKHY
FSVD
EPRK
MTMI
SRVH
QSDQ
LMYN
AGHI
ATGD
LPMN
ASHI
RKGL
LMHR
QPMC
KTGR
DHQC
HPWR
VHDS
ADWV
KHRV
GIRR
QHGV
CRAR
VNMD
PKPT
WPNA
PRFT
PPTH
ACPQ
RVRK
PHNV
AWKC
VTNN
YGQC
WQQG
RWGK
STMS
AIVA
KHFG
TNLL
KCRI
QPRV
CSST
NCIT
PSAL
GFAS
PFWL
PRAD
YAVM
IARM
RRCV
LYRR
HKES
CRCE
QCAW
YTRM
IVSV
HELC
GQII
FVTE
LQMW
VKHL
PVYR
VLCL
GMST
FGAV
ANLV
PVRC
TWVY
HVVR
AAYW
YTSK
THKS
RFWW
TPWS
FDYL
ERIL
IALL
SIKC
DTLW
GQTG
VVHY
AGKL
ENTS
FDMR
PYWD
ATAE
VQHT
RFSQ
TYFG
PVWC
YHPW
GSHV
CDLV
CRPC
IFTI
SFDR
MQDV
KHIR
KEAT
GSEF
SPRR
MWGP
LACW
RHLQ
MPWS
CPGE
ATTA
SAMW
HMDR
HHPG
PQLV
IAWR
DAYL
DAPR
RCER
GKTL
GGIR
ASQA
SPLT
EIEG
TSSG
PSMK
PDPI
VRRA
RCDK
LADL
EVQA
PCCT
RGSF
TIGL
DPTL
ARFV
GVAG
KHHW
GWLC
GCDA
SELG
CNLL
YGYR
PTDL
LCAS
SQGI
WHPR
SDSR
LSVR
DYRT
KRDI
VVNT
NMYK
THYM
AHME
PKCS
DPPK
KLQI
ALNR
GAFF
TETE
TSSQ
CFAS
NYWG
SKAY
SLHA
VHHD
ACRS
KTWP
TMLV
DINP
LCQG
AEPM
LGRS
SQVK
HHQA
IMLV
DVVY
GHVC
QASE
IRTH
VACR
KGAR
HAVR
WGFR
DVKF
VNHV
LTAE
GILT
NHAT
HIAC
RQVQ
SWSP
PGFL
CESR
APSC
AHHD
TGFG
IRYQ
QTSD
GTAG
LRMN
PFGP
QSSL
AKKS
NSLP
WRIR
NVSS
MHMR
PIFT
GEYS
QVLY
AANL
WTEY
NRHR
GHTG
QWRL
FVLS
NLGA
QKDL
HFQC
MAPA
YSSF
GPDR
NLEN
AFWS
PVFS
SCQW
IMKG
KSIE
RHFV
FNLG
TMKH
KDID
KVEV
DTRN
LYKF
HACC
GSVW
SSKL
MLVT
RPPA
SWSC
AEPY
ILNL
YART
AKDP
ILKW
EYWV
IRAC
QDQF
EAKC
VDLS
RKLL
NAAI
DRHH
SLNV
YGED
PYVS
RIWV
PAAF
QLVI
LGRP
CTMP
PCTT
CIRN
WSLT
CWRS
KYTC
PNYI
DYPG
PKHP
LYCE
LAPF
RGPM
KARG
PYGL
CECW
TPNC
KPRF
VNAM
LVVL
KHTY
YKGS
GEMY
SPWR
YSDE
QWSV
QLIN
FIVS
LSWY
NVAT
MCRV

one-hybrid fitness for binding parS DNA, 0.702:
RQWT

one-hybrid fitness for binding parS DNA, 0.554:
RTDA

one-hybrid fitness for binding parS DNA, 0.412:
RKPT

one-hybrid fitness for binding parS DNA, 0.238:
MCLK

one-hybrid fitness for binding parS DNA, 0.309:
RVLM

one-hybrid fitness for binding parS DNA, 0.289:
QVEN

one-hybrid fitness for binding parS DNA, 0.363:
RHGN

one-hybrid fitness for binding parS DNA, 0.756:
RKHT

one-hybrid fitness for binding parS DNA, 0.229:
RLMP

one-hybrid fitness for binding parS DNA, 0.851:
RKRG

one-hybrid fitness for binding parS DNA, 0.945:
RQMC

one-hybrid fitness for binding parS DNA, 0.451:
RLDY

one-hybrid fitness for binding parS DNA, 0.281:
RKRM
